We go through 73 sequences from PMC10726135.

The list shows a part of the results. At the low end of the ranking the order means little. Measured with an extract: partners may take part in the binding.

This experiment has as its target T1, HNF4alpha2 (COS-7 nuclear extract) (UniProt P41235).
T1 sequence: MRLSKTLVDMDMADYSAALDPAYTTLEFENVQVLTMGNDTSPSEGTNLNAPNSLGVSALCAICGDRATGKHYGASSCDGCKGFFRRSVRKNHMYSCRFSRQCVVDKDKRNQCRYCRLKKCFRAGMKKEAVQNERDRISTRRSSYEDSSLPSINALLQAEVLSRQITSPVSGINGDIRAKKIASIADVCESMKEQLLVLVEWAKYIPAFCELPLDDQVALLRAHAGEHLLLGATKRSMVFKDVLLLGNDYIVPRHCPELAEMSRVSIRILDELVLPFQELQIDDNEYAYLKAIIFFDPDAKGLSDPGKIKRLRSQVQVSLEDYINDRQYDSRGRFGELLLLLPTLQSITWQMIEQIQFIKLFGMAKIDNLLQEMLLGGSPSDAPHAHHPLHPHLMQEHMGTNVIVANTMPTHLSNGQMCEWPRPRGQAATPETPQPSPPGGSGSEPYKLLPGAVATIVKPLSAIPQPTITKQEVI
In words: protein-binding microarray. The conditions noted are these: COS-7 nuclear extract on double-stranded Agilent 4x180k PBM; binding buffer, salt, pH and temperature not given; high values mean tight binding; double strand, one strand shown; sequences stand for … in …GCCTAGGGAGATTAGAGTATCGGTCGA
In the case of CAACAAAGCATTATCTACACAGTAAGGTGC, the binding signal (log2 normalized intensity) was -1.19.
For ATCTCCACAAACATACAACCATCAAAGGTC, the binding signal (log2 normalized intensity) amounted to 2.59.
For TCTTTCAGAAACAAAGGGGGAGGGAGATAG, the binding signal (log2 normalized intensity) is -1.16.
In the case of CCGCCCGACTACAACAGCCTTGCAGATAAG, the binding signal (log2 normalized intensity) was -1.22.
In the case of GTTATCTAAATTAGATATGGCTTATACTTG it was -1.05; in that of AAGATAAGCAGCATTCCACCAAATCTTACC, -1.2.
In the case of GATGTGTGTATCAATGGCCCCAGTGCACGT it was 2.11.
On to CCTTGCTCAACTCCCTCTGAAGGGAGGGCC, for which the binding signal (log2 normalized intensity) was -1.06.
In the case of GTGGTTGCTCGGAACACGAGGTGAGAGGCG it was 0.0472.
Take ACGAGCAAGTTTATTCCAAGACTCGCGATA: the binding signal (log2 normalized intensity) is -1.06.
In the case of TTTCCTGTGACTTTTGGCCAGAGTAAGGCG it was 1.74; in that of GGCAGGGAAAGGGGGTTTGCAACCTTTGAT, 2.94.
In the case of CAAAAGTTCAAAGATATGATGGCCAGTTCA it was 1.19; in that of ACAGAGGTCAAAGAGCAATCATCAAGGTGG, 3.36.
Regarding GGGAAAGGGATAAGATTAGGTGCTGAGCAA, the binding signal (log2 normalized intensity) was -1.03.
In the case of AGCAGCTGTTTGACCAAAGCTACTCATCAT it was -1.04.
Regarding CAAACAGGTCAAGCAATGCTGGGGACCTTT, the binding signal (log2 normalized intensity) came out at 2.99.
Take GTATAACCTGGAACTGAAAGAGACCTTTGA: the binding signal (log2 normalized intensity) is 5.31.
In the case of CACCTACATTCAGGACACTTCTGAAAAAAA it was -1.08; in that of GGAGTTGCTTGTGTTGGAGCATTAGTTGAC, 1.22; in that of TAGGCATTGAGGCAGCCAGCGCAGGGGCTT, -1.15.
In the case of CAACCAGAGGTCACTTTTATCACCATCTTG it was 0.215; in that of CCCAAGGGATAGGCAGGAGTTAACTAACAA, -1.12.
In the case of GGAAGACAGTCTTGGGCACAAAGTACAAAA it was 2.18; in that of CTGGGGGCTGGGCGCGGGATCCTCTTTCCT, -0.94; in that of TAAGAAAGGCTACAAAGGTGACTTGCCCAG, -0.598.
As for CAGACTAAACTCACAATGGGGCATGACTTG, the binding signal (log2 normalized intensity) was -0.203.
In the case of CTGACAGACTGCCATTCCAGAAGTAGGATG it was -1.14.
On to TTGCACAGTATTTGGTGAGGCCCCAGTGTC, for which the binding signal (log2 normalized intensity) worked out at 1.59.
In the case of GGGCCGGCTCAGGAGAAGGGCCCATGGGCT it was -1.19.
In the case of TCTGCTTAAAGGCAAAGTCCAGAACCTGGA it was 3.15.
In the case of CCTGAAGGCTGAGCCTAGGAGTTCAATGCT it was -1.14.
For the sequence CATTCTTATCACAGAGCATCTGGTGGAACT, the binding signal (log2 normalized intensity) came out at 1.08.
ATAACACACAGGCTCAACGGGTTAGACGCA: the binding signal (log2 normalized intensity) is -1.13.
GACAGGCTAATGAGATAATGCTGGTAAAGC: the binding signal (log2 normalized intensity) was -0.891.
In the case of CCAGGGGAAACTCCATTTCCTTCTAGCTCC it was -1.06; in that of CCAAACCAGTTCAACAAGAATTCCCCACTC, -0.326; in that of ATCAGCAATGAACAAAGGTCGGTGGTATGT, 2.74.
In the case of TAACCATTCTTTCTGAGAAAAGCTGATGAC it was -0.831.
In the case of TCCCAGAGCATACATGCAGCTGAGAAAGAG it was -1.19.
Turning to AAACTCAGAGTCAAATCCCCTAGGTGATTA, the binding signal (log2 normalized intensity) is -0.81.
In the case of GAGCAAGAAACAGCAAATGCTTTTATTACC it was -1.21.
In the case of TAAAACAAACTCATTTTGATCTTTGTGTAC it was 2.61.
In the case of AGGGGTGGGGACCTTTGGGCTCTGACCCGA it was 2.46; in that of AGTATCTATAGTTATTGCATGCAAGAGTTC, 1.34.
In the case of AGGAATTCTGATCTTTGACCTCTCCAGGGT, the binding signal (log2 normalized intensity) was 5.99.
In the case of ACATTTAACTTAACCACTCAATCAGTACTG it was -0.895; in that of CAGGGCACATGTACACAGGAATATCAACAG, -1.06; in that of ACAGCATTAGAGCAACCAGAATGTTCAAAA, -1.06.
In the case of CAAAGGACAGGCTGACTATCACTGGGAGAT it was -0.988; in that of TAGGCTATCAGACAGCCACACTTTAATGTG, -1.09.
As to AGCTAGTGCTAAAGGTCATATCCAAAATAT, the binding signal (log2 normalized intensity) was 3.97.
On to GGAGACTTCAAACGGGAAGCGAGGCCTCAT, for which the binding signal (log2 normalized intensity) was -1.16.
With GATCCTTATCAGTGTGAGCTACAAGTGAAT, the binding signal (log2 normalized intensity) is -0.0021.
In the case of GATCTTTGTTAGACCCTTATCAGTAGTTCT it was 1.47.
In the case of TGTAACTAACAACTGACCTTGCAGGCCAGG, the binding signal (log2 normalized intensity) is -0.838.
In the case of CTGAGAGATTTTTTCTTCCACCTCCCTCCA it was 2.16; in that of GGCTTGTGTTTAACCTTTGGGTGTGTTCAG, 2.96; in that of GGCCCTGCAGGGCCCCACATTTCAGGAATG, 0.881.
With GAGCTGAGGAATTTCACCCAGGTATGACAA, the binding signal (log2 normalized intensity) was -1.18.
With CCAGATAAACAGAAGAAAGGGGCTAGGGCA, the binding signal (log2 normalized intensity) was -1.24.
Turning to TATGCATTTGTCTCAGGTGGGCAGAGGCCT, the binding signal (log2 normalized intensity) was -0.0135.
For CCTAACTATGGTTGATAAGGAAGTCCATGA, the binding signal (log2 normalized intensity) turned out to be 0.878.
In the case of AAAGGTCAGGGATAGAACTGGTCCTGTGGG it was -0.0244; in that of CTAGCTGAGTGAGTAGGTTCTCAGCTGACA, -1.08; in that of CCTTAGCTCTAGACATCGACCTTTGTGGGC, 3.95.
In the case of CAGTTTGAAAAACACTGGATAAAGTCCATA it was 2.02; in that of GGCAGGGTTGGCTGTGGCAATTCCTTAAAA, -0.551; in that of AGGCAGAGACTGCCCTGAGCCGCCAGGCGG, -1.16.
Consider TAATAGCCAGAACTCAGGGTCTGGTTCCAA, for which the binding signal (log2 normalized intensity) was -1.08.
In the case of GGCAGGTTGCCCTTTCGGTGGGACTAAATT it was 1.46; in that of CTGATAAAGGAAGGAATTTACTGCAGTCAG, -0.833; in that of GTAAGTTAAGTAACTCTCCAAATTCCAGGA, -1.1.
